# About 220 (0.56%) of roughly 39,000 compounds showed activity. Some of the results follow.
# Test system: Escherichia coli K-12 BW25113
# Assay: relative growth (OD600 normalised to plate interquartile mean) (fraction); higher = less growth inhibition, active = 0.2 or less
# Conditions: 50 µM; LB; incubation time: overnight (16-24 h)
# 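Note: static incubation at 37 °C against the wild-type strain, values averaged over two biological replicates.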
row,SMILES,relative growth
1,C[C@H]1CN([C@@H](C)CO)C(=O)c2cc(NC(=O)Cn3cnnn3)ccc2O[C@H]1CN(C)Cc1ccc(C(F)(F)F)cc1,inactive: 0.942
2,C[C@@H]1CCCCO[C@H](CN(C)C(=O)Nc2ccccc2)[C@@H](C)CN([C@@H](C)CO)C(=O)c2cc(NS(=O)(=O)c3ccccc3)ccc2O1,inactive: 1.01
3,COc1ccc(NC(=O)Nc2ccc3c(c2)C(=O)N([C@H](C)CO)C[C@H](C)[C@H](CN(C)C(=O)CCC(F)(F)F)OCCCC[C@@H](C)O3)cc1,inactive: 0.987
4,Cc1noc(C)c1S(=O)(=O)Nc1ccc2c(c1)CC(=O)N([C@@H](C)CO)C[C@H](C)[C@@H](CN(C)S(=O)(=O)c1c(C)noc1C)O2,inactive: 0.986
5,COc1ccc(-c2oc3cc(OC)c(OC)c(OC)c3c(=O)c2OC)cc1OC,inactive: 1.18
6,Cc1noc(C)c1S(=O)(=O)N(C)C[C@@H]1Oc2ccc(NS(C)(=O)=O)cc2CC(=O)N([C@H](C)CO)C[C@H]1C,inactive: 0.994
7,C=CCOC(=O)[C@@H]1[C@H]2C(=O)O[C@H](c3ccccc3)[C@H](c3ccccc3)N2[C@H](c2ccc(OCCOC(=O)[C@H]3C[C@H]4C(=O)N[C@@H](CCCC[N+](C)(C)C)C(=O)N4[C@H]3c3ccc(O)cc3)cc2)[C@@]12C(=O)Nc1ccc(I)cc12,inactive: 1.06
8,CO[C@@H]1CN(C)C(=O)c2cc(NC(=O)C3CCOCC3)ccc2OC[C@@H](C)N(C(=O)C2CCOCC2)C[C@H]1C,inactive: 1.01
9,CCOC(=O)Nc1nc2ccccc2[nH]1,inactive: 0.989
10,CCCC(=O)Nc1ccc2c(c1)C(=O)N(C)C[C@H](OC)[C@@H](C)CN(S(=O)(=O)c1cn(C)cn1)[C@@H](C)CO2,inactive: 0.97
11,O=C(C[C@H]1C[C@@H]2c3cc(NC(=O)c4ccc5c(c4)OCO5)ccc3O[C@@H]2[C@H](CO)O1)NCc1ccc(Oc2ccccc2)cc1,inactive: 1
12,O=C(C[C@@H]1C[C@H]2c3cc(NS(=O)(=O)c4ccc(F)cc4)ccc3O[C@H]2[C@@H](CO)O1)N1CCCCC1,inactive: 1.02
13,Cc1noc(C)c1S(=O)(=O)Nc1ccc2c(c1)C(=O)N([C@@H](C)CO)C[C@H](C)[C@@H](CN(C)Cc1ccc(C(=O)O)cc1)O2,inactive: 1
14,C[C@H](CO)N1C[C@H](C)[C@H](CN(C)Cc2ccc(Cl)c(Cl)c2)OCc2ccccc2-c2c(n(C)c3ccccc23)C1=O,inactive: 1.01
15,C[C@H](CO)N1C[C@H](C)[C@H](CN(C)Cc2ccccc2C(F)(F)F)OCc2ccccc2-c2ccccc2C1=O,inactive: 0.974
16,C[C@@H]1CN([C@@H](C)CO)C(=O)c2cccc(NC(=O)c3nc4ccccc4s3)c2O[C@H]1CN(C)CC1CCCCC1,inactive: 0.912
17,COc1ccccc1NC(=O)Nc1ccc2c(c1)C(=O)N(C)C[C@@H](OC)[C@H](C)CN(Cc1ccccc1Cl)[C@H](C)CO2,inactive: 1.04
18,C[C@@H]1CN([C@H](C)CO)C(=O)c2cc(NC(=O)C3CCCCC3)ccc2O[C@@H](C)CCCCO[C@H]1CN(C)S(=O)(=O)c1cccs1,inactive: 0.977
19,C[C@H]1CN([C@@H](C)CO)C(=O)c2cc(C#Cc3ccc(F)cc3)cnc2O[C@H]1CN(C)CC1CCOCC1,inactive: 1.01

row,SMILES,relative growth
1,C[C@@H]1CN([C@H](C)CO)C(=O)c2cc(NC(=O)CCCN(C)C)ccc2O[C@@H]1CN(C)S(=O)(=O)c1ccc(Cl)cc1,inactive: 1.01
2,NC(=O)c1ccc(CN2CCOCC2)cc1,inactive: 0.992
3,C[C@@H]1CCCCO[C@H](CN(C)CC2CC2)[C@@H](C)CN([C@H](C)CO)C(=O)c2cc(NS(=O)(=O)c3cn(C)cn3)ccc2O1,inactive: 1.02
4,C[C@H]1CN([C@@H](C)CO)C(=O)c2cc(Br)cnc2O[C@H]1CN(C)C(=O)Nc1ccc(F)cc1,inactive: 1.01
5,OCC1(O)OCC(O)C(O)C1O (configuration not stated),inactive: 1.16
6,C[C@H]1CN([C@@H](C)CO)C(=O)c2cc(C#Cc3ccccc3F)cnc2O[C@@H]1CN(C)C(=O)c1ccc2c(c1)OCO2,inactive: 1.02
7,C[C@@H]1CN([C@H](C)CO)C(=O)c2cc(-c3ccc(C(=O)N(C)C)cc3)cnc2O[C@H]1CN(C)C(=O)C1CC1,inactive: 1.03
8,C[C@@H]1CN([C@@H](C)CO)C(=O)c2cccc(NS(=O)(=O)c3cccs3)c2O[C@@H]1CN(C)Cc1ccc(-c2ccccc2)cc1,inactive: 1.03
9,CCS(=O)(=O)Nc1ccc2c(c1)C(=O)N(C)C[C@H](OC)[C@H](C)CN(Cc1ccccn1)[C@@H](C)CO2,inactive: 1.02
10,CC(C)(O)C#Cc1cccc(-c2nc(C(=O)Nc3ccc(-c4ccccc4)cc3)cc3c2[C@@H](CCO)N(S(=O)C(C)(C)C)C3)c1 (some centres not stated),inactive: 0.997
11,NCc1ccc(-c2ccc(Br)cc2)cc1,inactive: 0.968
12,C[C@@H]1CN([C@H](C)CO)C(=O)c2cc(NS(C)(=O)=O)ccc2O[C@H]1CN(C)S(=O)(=O)c1ccccc1,inactive: 1.01
13,C[C@@H]1CN([C@@H](C)CO)C(=O)Cc2cc(NC(=O)CCN3CCOCC3)ccc2O[C@H]1CN(C)C(=O)Nc1ccc(F)cc1,inactive: 1.01
14,COc1ccc(S(=O)(=O)Nc2cccc3c2O[C@@H](CN(C)S(=O)(=O)c2cn(C)cn2)[C@@H](C)CN([C@@H](C)CO)C3=O)cc1,inactive: 1.01
15,CN1C[C@H](O)COC[C@H]2O[C@H](CC(=O)N3CCN(c4ccccc4)CC3)CC[C@@H]21,inactive: 0.98
16,Cc1ccc(S(=O)(=O)N(C)C[C@@H]2Oc3c(NC(=O)NC(C)C)cccc3C(=O)N([C@H](C)CO)C[C@H]2C)cc1,inactive: 0.995
17,C[C@@H]1CN([C@H](C)CO)C(=O)Cc2cc(NS(=O)(=O)c3cccs3)ccc2O[C@@H]1CN(C)Cc1ccc(Cl)c(Cl)c1,inactive: 1.01
18,C[C@H]1CCCCO[C@H](CN(C)Cc2ccc(C(F)(F)F)cc2)[C@@H](C)CN([C@@H](C)CO)C(=O)c2cc(NC(=O)Nc3ccc4c(c3)OCO4)ccc2O1,inactive: 1.03
19,Cc1ccc(S(=O)(=O)Nc2ccc3c(c2)C(=O)N([C@@H](C)CO)C[C@@H](C)[C@H](CN(C)C(=O)Cc2ccccc2)OCCCC[C@H](C)O3)cc1,inactive: 0.981

row,SMILES,relative growth
1,C[C@@H]1CN([C@H](C)CO)C(=O)c2cc(NC(=O)CCN3CCOCC3)ccc2O[C@@H]1CN(C)Cc1ccccc1,inactive: 1.02
2,C[C@H]1CN([C@@H](C)CO)C(=O)c2c(c3ccccc3n2C)-c2ccccc2CO[C@@H]1CN(C)Cc1ccccc1,inactive: 0.976
3,C[C@@H]1CCCCO[C@@H](CN(C)S(C)(=O)=O)[C@H](C)CN([C@@H](C)CO)C(=O)c2cc(NS(=O)(=O)c3ccccc3)ccc2O1,inactive: 1.02
4,COc1cccc(C#Cc2ccc([C@H]3[C@@H](CO)N4C(=O)CN(S(=O)(=O)c5ccccc5C)C[C@@H]34)cc2)c1,inactive: 1.04
5,O=C(NCCCN1CCOCC1)[C@H]1[C@H](CO)[C@H]2Cn3c(ccc(C4=CCCCC4)c3=O)[C@@H]1N2,inactive: 0.995
6,C[C@H](CO)N1C[C@H](C)[C@H](CN(C)C(=O)Nc2ccc(C(F)(F)F)cc2)Oc2ccc(NS(=O)(=O)c3ccc(Cl)cc3)cc2CC1=O,inactive: 0.931
7,CC(N)O.Cc1cc(CC(C)CC(C)(C)C)n(O)c(=O)c1 (configuration not stated),active: 0.0449
8,C[C@H]1CN([C@@H](C)CO)C(=O)c2c(c3ccccc3n2C)-c2ccccc2CO[C@H]1CN(C)Cc1ccc(C(=O)O)cc1,inactive: 1.01
9,C[C@@H]1CN([C@@H](C)CO)C(=O)c2cccc(NC(=O)c3ccc(-c4nccs4)cc3)c2O[C@H]1CN(C)S(=O)(=O)c1ccc(Cl)cc1,inactive: 0.973
10,CN(C)CCCC[C@@H]1NC(=O)[C@@H]2C[C@H](C(=O)NCCCCCCNC(=O)CS)[C@H](c3cccc(OCCO)c3)N2C1=O,inactive: 1.02
11,CCC1OC(=O)C(C)C(OC2CC(C)(OC)C(O)C(C)O2)C(C)C(OC2OC(C)CC(N(C)C)C2O)C(C)(O)CC(C)C(=O)C(C)C(O)C1(C)O.CCCCCCCCCCCCCCCCCC(=O)O (configuration not stated),inactive: 0.665
12,C[C@@H]1CN([C@H](C)CO)S(=O)(=O)c2ccc(C#Cc3cccnc3)cc2O[C@H]1CN(C)C(=O)CN(C)C,inactive: 0.976
13,CCN(CC)/[N+]([O-])=N/OC,inactive: 0.984
14,COc1ccc([Si](C)(C)[C@H]2[C@H](CCO)O[C@@]3(C(=O)N(Cc4ccc(N5C(=O)c6ccccc6Oc6ccccc65)cc4)c4ccccc43)[C@@H]2C)cc1,inactive: 1.03
15,CCc1c(Cl)c(O)c(Cl)c(O)c1C(=O)O[C@H]1[C@H](O)[C@H](OC)[C@H](OC/C2=C\C=C\C[C@H](O)/C(C)=C/[C@H](CC)[C@@H](O[C@@H]3OC(C)(C)[C@@H](OC(=O)C(C)C)[C@H](O)[C@@H]3O)/C(C)=C/C(C)=C/C[C@@H]([C@@H](C)O)OC2=O)O[C@@H]1C,inactive: 0.987
16,Cc1noc(C)c1S(=O)(=O)Nc1ccc2c(c1)CC(=O)N([C@@H](C)CO)C[C@@H](C)[C@@H](CN(C)C(=O)NC1CCCCC1)O2,inactive: 0.988
17,C[C@@H]1CCCCO[C@@H](CN(C)CC2CCCCC2)[C@H](C)CN([C@@H](C)CO)C(=O)c2cc(NC(=O)c3ccccc3)ccc2O1,inactive: 0.985
18,Cc1noc(C)c1NC(=O)Nc1ccc2c(c1)C(=O)N([C@H](C)CO)C[C@H](C)[C@H](CN(C)Cc1ccc(C(=O)O)cc1)OCCCC[C@@H](C)O2,inactive: 0.999
19,C[C@@H]1CCCCO[C@H](CN(C)Cc2ccncc2)[C@H](C)CN([C@@H](C)CO)C(=O)c2cc(NC(=O)C3CCCCC3)ccc2O1,inactive: 1.04
